Results published in PubChem BioAssay AID881 (National Center for Advancing Translational Sciences (NCATS), 2007).
About 610 (0.55%) of roughly 110,000 compounds were called active. The inconclusive results got no clear call from the source; some entries with a clear call stand among them for comparison. The call rests on the fitted dose curve; in most records, active means well fitted inhibition curve with a large enough effect; inconclusive means small, poorly fitted or top-dose-only effect; inactive means no such curve, though single readings can be large or run the other way. Potencies of inconclusive entries are doubtful fits and often do not repeat.

These compounds were tested against Polyunsaturated fatty acid lipoxygenase ALOX15B (Homo sapiens) (UniProt O15296) (assay: qHTS Assay for Inhibitors of 15-hLO-2 (15-human lipoxygenase 2)). Conditions: purified 15hLO-2, xylenol orange hydroperoxide absorbance; activity change, negative = inhibition: at 57.1 µM (top of the series) unless noted.
Sequence of UniProt O15296 (O15296 whole entry, looked up): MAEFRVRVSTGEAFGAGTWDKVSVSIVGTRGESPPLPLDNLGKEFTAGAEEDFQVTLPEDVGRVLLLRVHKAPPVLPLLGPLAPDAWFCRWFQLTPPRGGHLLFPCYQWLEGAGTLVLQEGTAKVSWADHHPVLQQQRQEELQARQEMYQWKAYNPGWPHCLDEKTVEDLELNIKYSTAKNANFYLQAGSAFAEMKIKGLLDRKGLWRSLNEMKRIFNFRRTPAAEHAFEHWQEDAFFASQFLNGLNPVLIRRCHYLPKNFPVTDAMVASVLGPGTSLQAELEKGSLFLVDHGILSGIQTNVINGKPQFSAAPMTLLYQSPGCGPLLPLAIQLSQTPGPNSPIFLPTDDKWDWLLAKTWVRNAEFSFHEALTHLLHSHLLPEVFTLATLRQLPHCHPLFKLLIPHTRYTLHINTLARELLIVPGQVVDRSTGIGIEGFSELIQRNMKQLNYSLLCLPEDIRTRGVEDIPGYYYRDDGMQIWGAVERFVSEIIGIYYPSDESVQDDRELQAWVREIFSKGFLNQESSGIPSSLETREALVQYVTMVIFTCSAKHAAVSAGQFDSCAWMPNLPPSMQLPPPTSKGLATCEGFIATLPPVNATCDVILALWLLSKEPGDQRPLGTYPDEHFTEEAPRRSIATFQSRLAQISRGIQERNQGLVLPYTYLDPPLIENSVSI
Procedure, shortened: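 Purified human 15hLO-2 (50 nM final) preincubated with compounds 15 min at room temperature in 25 mM Hepes pH 7.5, 0.01% Triton X-100, then 45 uM arachidonic acid added for 90 min; hydroperoxide detected via ferrous/xylenol orange, 573/405 nm absorbance ratio.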
Further: nearly all actives have a fitted effect of over 60% in size.
On the % scale 0 is the no-effect control and ±100 the full control effect; potency means the concentration at half of the fitted maximal effect; tags describe the fitted curve by direction and shape.

SMILES | Potency | activity change, negative = inhibition
CCOc1cc(/C=C2/N=C(c3ccc(C(C)(C)C)cc3)OC2=O)cc(Cl)c1OS(C)(=O)=O | inconclusive: 31.6 µM [inhibitor, single point] | –
Cc1cccc(N(C(=O)Cn2nnc3ccccc32)C(C(=O)NC(C)(C)C)c2ccsc2)c1 (stereo not given) | inactive | –
N#Cc1nc(-c2cccs2)oc1NCc1ccccc1 | inconclusive: 10 µM [inhibitor, partial curve] | –
CCOCCCNC(=O)C(NC(=O)c1ccc(=O)[nH]c1)c1ccc(C)cc1 (stereo not given) | inactive | –
O=C(c1nn2c(C(F)(F)F)cc(-c3ccco3)nc2c1Br)N1CCCc2ccccc21 | inconclusive: 25.1 µM [inhibitor, single point] | –
Cc1cccc(NC(=O)CSC(N)=O)c1C | inconclusive: 7.94 µM [inhibitor, partial curve] | –
N#C/C(=C1\C(=O)Nc2c(Cl)cc(Cl)cc21)c1nnc2n1CCCCC2 | inconclusive: 20 µM [inhibitor, partial curve, poor fit] | –
COc1ccc(N/N=C(\C=N\O)C(=O)c2ccc(OC)cc2)cc1 | inconclusive: 15.8 µM [inhibitor, partial curve] | –
Cc1ccc(CNC(=O)c2cn(C)c(=O)c3c2c2ccccc2n3C)o1 | inconclusive: 39.8 µM [inhibitor, single point] | –
Cc1ccc(S(=O)(=O)/N=c2\sccn2C)cc1 | inactive | –
CC1(C)CC(CC(=O)Nc2ccccn2)C(=O)O1 (stereo not given) | inactive | –
CCOc1cccc(C(=O)c2ccc(O)c(O)c2O)c1 | inconclusive: 15.8 µM [inhibitor, partial curve] | –
Cc1ccc(NC(=O)CC2SC3=NCCCN3C2=O)c(C)c1 (stereo not given) | inconclusive: 10 µM [inhibitor, partial curve] | –
COC(=O)N1CCC2(CC1)CCN(c1cccc(-c3ccccc3)c1)CC2 | inactive | –
CCOC(=O)Cc1csc(NC(=O)c2sc3nc4ccc(C)cc4cc3c2N)n1 | inconclusive: 25.1 µM [inhibitor, single point] | –
O=c1c2c3nc4ccccc4nc3n(-c3ccc4c(c3)OCCO4)c2ncn1C1CCCC1 | inconclusive: 31.6 µM [inhibitor, single point] | –
N#C/C(=N\Nc1ccc(Cl)cc1)C(=N)N1CCCCC1 | inconclusive: 5.01 µM [inhibitor, partial curve] | –
CCN(CC)c1ccc2cc(C(=O)Nc3ccccn3)c(=O)oc2c1 | inactive | –
COc1ccc(C2NC(=O)c3sc(=S)n(-c4ccccc4)c3N2)cc1 (stereo not given) | inconclusive: 25.1 µM [inhibitor, single point] | –
c1ccc(CNCCN2CCNCC2)nc1 | inactive | –
Cc1ccc2nc(/C(C#N)=C\c3ccc(OC(=O)c4cccs4)cc3)[nH]c2c1 | inconclusive: 15.8 µM [inhibitor, single point] | –
Cc1cc(Cl)ccc1N=c1ssnc1Cl | inconclusive: 39.8 µM [inhibitor, single point] | –
CC1(C)C(O)CC[C@]2(C)C1CC[C@@]1(C)C2C(=O)C=C2[C@@H]3C[C@@](C)(C(=O)O)CC[C@@]3(C)CCC21C (stereo not given in full) | inactive | –

SMILES | Potency | activity change, negative = inhibition
COc1ccc([N+](=O)[O-])cc1NC(=S)NC(NC(=O)C(c1ccccc1)c1ccccc1)C(Cl)(Cl)Cl (stereo not given) | inconclusive: 10 µM [inhibitor, partial curve] | –
CC1Cc2ccccc2N1Cc1nc2cc(Cl)ccc2c(=O)[nH]1 (stereo not given) | inconclusive: 25.1 µM [inhibitor, partial curve] | –
COC(=O)c1ccc(NC(=O)c2cccc(OC)c2)cc1 | inactive | –
CCOC(=O)C1=C(C)NC2=C(C1c1ccc([N+](=O)[O-])cc1)S(=O)(=O)c1ccccc12 (stereo not given) | inconclusive: 31.6 µM [inhibitor, single point] | –
c1ccc(-c2noc(-c3cccc4ccccc34)n2)nc1 | inactive | –
COc1ccc(CCN2C(=O)c3[nH]nc(-c4ccccc4O)c3C2c2cccc(O)c2)cc1OC (stereo not given) | inconclusive: 25.1 µM [inhibitor, partial curve] | –
COc1ccccc1NC(=O)c1cc2ccc(O)cc2o/c1=N\O | inactive | –
c1ccc2c3nnc4n(c-3nc2c1)CCCS4 | inconclusive: 25.1 µM [inhibitor, single point] | –
Oc1ccc(N2CCN(c3ncnc4sc5c(c34)CCC5)CC2)cc1 | inconclusive: 7.94 µM [inhibitor, partial curve] | –
CCCCSc1nc(O)c(Cc2ccccc2)c(=O)[nH]1 | inconclusive: 31.6 µM [inhibitor, single point] | –
Cc1nc(-c2ccccc2)sc1C(=O)/C=C/c1ccc(Cl)cc1 | inactive | –
CC(C)n1cc(/C=C2/SC(=O)N(CC(=O)Nc3ccc4c(c3)OCO4)C2=O)c2ccccc21 | inconclusive: 15.8 µM [inhibitor, partial curve] | –
O=C1CC(O)(C(F)(F)F)Oc2c1ccc1ccccc21 (stereo not given) | inactive | –
CC(C#N)Sc1ncnc2sc3c(c12)CCC3 (stereo not given) | inactive | –
CCOc1ccccc1N1CSC2=C(C#N)C(c3c(OC)ccc4ccccc34)CC(=O)N2C1 (stereo not given) | active: 10 µM | –
COC(=O)[C@@]1(Cc2ccc(OC)cc2)[C@H]2c3cc(C(=O)N(C)C)n(Cc4ccc(C)o4)c3C[C@H]2CN1C(=O)c1ccccc1 | inconclusive: 7.94 µM [inhibitor, partial curve] | –
O=C1Nc2ccccc2/C1=N/c1sc2c(c1C(=O)NCCc1ccccc1)CCCC2 | inconclusive: 25.1 µM [inhibitor, single point] | –
O=C(Cn1cnc2sc(-c3ccccc3)cc2c1=O)NCc1ccco1 | inconclusive: 31.6 µM [inhibitor, single point] | –
COc1cccc(N2CCN(Cc3nc(N)nc(Nc4ccccc4)n3)CC2)c1 | – | inactive: 26% [at 2.29 µM]
CC(C)(C)c1ccc(CN2N=Nc3ccccc3S2(=O)=O)cc1 | inconclusive: 2 µM [inhibitor, full curve] | –
Cc1nc2cnc(N(C)C)nc2n(C2CC2)c1=O | inactive | –
O=C1c2ccccc2C(=O)C1(O)O | active: 25.1 µM | –
